The other results are listed elsewhere or left out.

These results are taken from a collection of fitness landscapes (doi:10.1126/science.1257360).

To fix the notation:
B1: PhoQ; a variant is named by its letters at X, in order, P23837 (parent)
chain: MKKLLRLFFPLSLRVRFLLATAAVVLVLSLAYGMVALIGYSVSFDKTTFRLLRGESNLFYTLAKWENNKLHVELPENIDKQSPTMTLIYDENGQLLWAQRDVPWLMKMIQPDWLKSNGFHEIEADVNDTSLLLSGDHSIQQQLQEVREDDDDAEMTHSVAVNVYPATSRMPKLTIVVVDTIPVELKSSYMVWSWFIYVLSANLLLVIPLLWVAAWWSLRPIEALAKEVRELEEHNRELLNPATTRELTSLVRNLNRLLKSERERYDKYRTTLTDLTHSLKTPLXXLQXXLRSLRSEKMSVSDAEPVMLEQISRISQQIGYYLHRASMRGGTLLSRELHPVAPLLDNLTSALNKVYQRKGVNISLDISPEISFVGEQNDFVEVMGNVLDNACKYCLEFVEISARQTDEHLYIVVEDDGPGIPLSKREVIFDRGQRVDTLRPGQGVGLAVAREITEQYEGKIVAGESMLGGARMEVIFGRQHSAPKDE

The variants in the experiment derive from B1. Kind of experiment: enrichment ratio after two sorts for PhoP signalling (ratio (wild type AVST 3.29)); higher = more functional. Conditions: with PhoP (E. coli).
For the variant VNCP, the enrichment ratio is at most 0.25. Take KFID: the enrichment ratio is at most 0.25. Regarding HEDV, the enrichment ratio is at most 0.25. Then YVPR, with at most 0.25; and LCWV, with at most 0.25. Consider QDQS, for which the enrichment ratio is at most 0.25. Consider SCAC, for which the enrichment ratio turned out to be 10.6. To QHPR belongs at most 0.25; to NKKL, at most 0.25. Then RYHA, with at most 0.25; and EDAC, with at most 0.25. To RCMD belongs at most 0.25; to RYSY, at most 0.25. For HDVI, the enrichment ratio is at most 0.25.

Turning to VNVH, the enrichment ratio came to 0.711.

Take KFNT: the enrichment ratio was at most 0.25. Consider FDAW, for which the enrichment ratio was at most 0.25. In the case of QDLL, the enrichment ratio is at most 0.25. Take VRGN: the enrichment ratio is at most 0.25. For EMHY, the enrichment ratio was at most 0.25. Then IGGI, with at most 0.25.

Turning to DKFT, the enrichment ratio was at most 0.25. To QRCW belongs at most 0.25. Take YLIN: the enrichment ratio was at most 0.25. Then LRGF, with at most 0.25; and KDER, with at most 0.25. On to FPLR, for which the enrichment ratio is at most 0.25. For the variant VSQA, the enrichment ratio was at most 0.25.

Turning to RVFR, the enrichment ratio is at most 0.25. TNES: the enrichment ratio is at most 0.25. Then DDLP, with at most 0.25. To DWRH belongs at most 0.25; to MVPQ, at most 0.25. Then RQGM, with at most 0.25; and WFLH, with at most 0.25.

For the variant VRNA, the enrichment ratio is at most 0.25.

FDFN: the enrichment ratio is at most 0.25. As for YHPG, the enrichment ratio is at most 0.25.

Take QTEW: the enrichment ratio is at most 0.25.

On to RLPM, for which the enrichment ratio was at most 0.25.

Turning to WQPN, the enrichment ratio was at most 0.25. Then EFRK, with at most 0.25; and YFFV, with at most 0.25; and QFAD, with at most 0.25. Then AEIL, with 28.2. In the case of SYHP, the enrichment ratio is at most 0.25. As for YSEV, the enrichment ratio was at most 0.25. Then PRHS, with at most 0.25.

Take ACAG: the enrichment ratio came to 3.23. For the variant WVPD, the enrichment ratio is at most 0.25. To MTSI belongs 1.53; to CSSM, at most 0.25.

Regarding RNQF, the enrichment ratio is at most 0.25. To NDKL belongs at most 0.25; to MISW, at most 0.25. Take PGLT: the enrichment ratio is at most 0.25. As to YNYW, the enrichment ratio is at most 0.25. To TFKF belongs at most 0.25; to DHAK, at most 0.25.

For SLYE, the enrichment ratio is at most 0.25.

With IPCD, the enrichment ratio is at most 0.25. Then VDHT, with at most 0.25; and SFSV, with at most 0.25. For VQIR, the enrichment ratio is at most 0.25. To RCIT belongs at most 0.25. To NHMW belongs at most 0.25; to TIGM, 21.8. Turning to TFGF, the enrichment ratio was at most 0.25. Take FSCM: the enrichment ratio worked out at 16.6.

QHAE: the enrichment ratio was at most 0.25.

Consider SCRI, for which the enrichment ratio was at most 0.25.

SPES: the enrichment ratio was at most 0.25.

On to RRGK, for which the enrichment ratio was at most 0.25. Turning to KPVH, the enrichment ratio was at most 0.25. With EIQL, the enrichment ratio is at most 0.25. Consider RRDQ, for which the enrichment ratio is at most 0.25. Consider RLDY, for which the enrichment ratio was at most 0.25. To GDAW belongs at most 0.25. To AQIT belongs 0.538. To IFPT belongs at most 0.25; to CYTP, at most 0.25.

In the case of KIFN, the enrichment ratio is at most 0.25. Then RWHD, with at most 0.25. Then KPRS, with at most 0.25; and IQMR, with at most 0.25; and PIGN, with at most 0.25. Then NRPK, with at most 0.25. MYWS: the enrichment ratio is at most 0.25. Then AGWS, with at most 0.25; and FMTY, with at most 0.25; and NLWP, with at most 0.25. On to QSRM, for which the enrichment ratio is at most 0.25. To QDHS belongs at most 0.25; to FQSQ, at most 0.25; to NKDG, at most 0.25. With TCLN, the enrichment ratio is 13.6.

Take QFFY: the enrichment ratio is at most 0.25. With LPIF, the enrichment ratio is at most 0.25.

For SPWP, the enrichment ratio was at most 0.25. Regarding SKKH, the enrichment ratio is at most 0.25. KVKR: the enrichment ratio was at most 0.25. Then GNGR, with at most 0.25; and NMGP, with at most 0.25. Then IKAV, with at most 0.25; and LKQM, with 1.53; and ANEY, with at most 0.25. To RLRG belongs at most 0.25; to HYDI, at most 0.25. TIQI: the enrichment ratio is 12.3. On to RYDN, for which the enrichment ratio was at most 0.25. Regarding WIYL, the enrichment ratio is at most 0.25. As to NLPL, the enrichment ratio is at most 0.25.

As to THAE, the enrichment ratio was at most 0.25.

For the variant YVPP, the enrichment ratio was at most 0.25. Then KSCG, with 1.82; and DGVK, with at most 0.25; and TPSY, with at most 0.25. IQYC: the enrichment ratio was at most 0.25.

As for DSPP, the enrichment ratio was at most 0.25. Take ETQV: the enrichment ratio is at most 0.25. To WIFE belongs at most 0.25. Then KPVA, with at most 0.25. On to NEFI, for which the enrichment ratio was at most 0.25.

With FYGD, the enrichment ratio was at most 0.25. To IGVQ belongs at most 0.25; to RCVD, at most 0.25; to GWCL, at most 0.25. Then LKKK, with at most 0.25; and IMGN, with at most 0.25; and RNNM, with at most 0.25. To LICS belongs at most 0.25. In the case of NSKV, the enrichment ratio is at most 0.25.

Regarding GKWA, the enrichment ratio was at most 0.25. Then TEDT, with 3.04; and NPYK, with at most 0.25; and EDKP, with at most 0.25. Then RHSE, with at most 0.25; and KHHH, with at most 0.25.

For the variant HCPR, the enrichment ratio is at most 0.25. Then MHNR, with at most 0.25; and TYFL, with at most 0.25; and GHFH, with at most 0.25.

Regarding IGTW, the enrichment ratio was determined as 1.37. Then TQSN, with 8.05; and TFNH, with at most 0.25. To FMCI belongs at most 0.25; to VCCP, at most 0.25. Then LYMF, with at most 0.25; and FNEM, with at most 0.25; and IQEN, with at most 0.25. With YCKF, the enrichment ratio was at most 0.25. For KIIR, the enrichment ratio was at most 0.25. For IFKD, the enrichment ratio is at most 0.25.

Consider YNSQ, for which the enrichment ratio is at most 0.25. Turning to FKGE, the enrichment ratio is at most 0.25. Consider KKHC, for which the enrichment ratio is at most 0.25. To KSNK belongs at most 0.25. With RNQG, the enrichment ratio is at most 0.25. To QHHI belongs at most 0.25; to DWFK, at most 0.25. To PCGL belongs at most 0.25; to QGRN, at most 0.25. To HHRH belongs at most 0.25; to VSPV, at most 0.25; to VAGM, 2.76.

On to KYGE, for which the enrichment ratio was at most 0.25. On to HMYT, for which the enrichment ratio was at most 0.25. For VMFY, the enrichment ratio was at most 0.25. Turning to KLYE, the enrichment ratio was at most 0.25.

In the case of ICDA, the enrichment ratio is at most 0.25.

Regarding NPGW, the enrichment ratio is at most 0.25. With RVEM, the enrichment ratio is at most 0.25. To AWRN belongs at most 0.25; to VEMI, at most 0.25. For QWQV, the enrichment ratio was at most 0.25.

In the case of WYFA, the enrichment ratio was at most 0.25. To LLMC belongs at most 0.25; to HEGE, at most 0.25.

For VFIF, the enrichment ratio is at most 0.25. To TVLQ belongs 1.48; to RQCM, at most 0.25.

With GSKW, the enrichment ratio is at most 0.25. Then SYNA, with at most 0.25. Turning to RPYM, the enrichment ratio was at most 0.25. In the case of CFKF, the enrichment ratio is at most 0.25.

For the variant SWRC, the enrichment ratio was at most 0.25.

For the variant FHLK, the enrichment ratio is at most 0.25. In the case of MIYT, the enrichment ratio was at most 0.25.

In the case of EPMF, the enrichment ratio is at most 0.25.

LYYC: the enrichment ratio was at most 0.25.

As for GYIR, the enrichment ratio was at most 0.25. NCYP: the enrichment ratio was at most 0.25. In the case of VQFR, the enrichment ratio is at most 0.25. Then PFNE, with at most 0.25; and NMYR, with at most 0.25.
